Reference: the supplement of paper PMC3334620
Over roughly 33,000 sequences, “E-score (-0.5 to 0.5)” has its median near -0.016; the highest 2% begin near 0.32. The list shows a part of the results.

What follows are sequences tested against T1, Stp1 (UniProt B3LFK1) (assay: PBM E-score (8-mer binding enrichment) (E-score (-0.5 to 0.5)); higher = stronger / more preferred TF binding; most listed sequences are background and not binding sites). Settings: protein concentration: 200 nM; construct: GST-full length.
T1 sequence: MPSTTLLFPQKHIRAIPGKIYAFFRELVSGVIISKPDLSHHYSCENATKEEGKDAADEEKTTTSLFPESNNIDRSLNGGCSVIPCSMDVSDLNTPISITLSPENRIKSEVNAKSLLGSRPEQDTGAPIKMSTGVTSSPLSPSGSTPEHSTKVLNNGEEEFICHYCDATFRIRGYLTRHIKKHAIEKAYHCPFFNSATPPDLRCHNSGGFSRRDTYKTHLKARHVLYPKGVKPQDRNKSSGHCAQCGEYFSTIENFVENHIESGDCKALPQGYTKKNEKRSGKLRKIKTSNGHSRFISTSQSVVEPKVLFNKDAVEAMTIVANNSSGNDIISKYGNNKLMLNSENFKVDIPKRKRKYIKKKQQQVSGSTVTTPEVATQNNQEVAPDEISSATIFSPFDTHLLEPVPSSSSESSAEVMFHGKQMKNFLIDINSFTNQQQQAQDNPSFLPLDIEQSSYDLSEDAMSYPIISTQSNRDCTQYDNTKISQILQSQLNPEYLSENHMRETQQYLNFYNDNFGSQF
Method in brief: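 PURExpress in vitro transcription/translation supplied GST-tagged yeast transcription factors, either full-length or DNA-binding domain. Applied at about 100-200 nM to universal all-10-mer Agilent arrays double-stranded by primer extension, the bound protein was detected with fluorescent anti-GST. E-scores, modified Wilcoxon-Mann-Whitney statistics, were given by the Universal PBM Analysis Suite to ungapped eight-base words pooled with their reverse complements after masliner normalisation.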

| Sequence | PBM E-score |
| --- | --- |
| CAAGCAGC | -0.13 |
| AGGTTCTA | 0.0188 |
| CATTACTA | 0.113 |
| GAGGGGGC | -0.277 |
| ATACGCCC | -0.157 |
| GCACGGAC | 0.28 |
| ACGTATTG | 0.118 |
| TGCTTACA | 0.0332 |
| ACGGTCTA | -0.0402 |
| GCTCCGGA | -0.0424 |
| CGCGTCTA | 0.0741 |
| AGCAACAG | -0.00103 |
| GATCAGCA | -0.044 |
| TAAATCAA | 0.0833 |
| AGGATCGG | -0.0505 |
| AGACCCGC | 0.176 |
| ACAGAGGA | -0.127 |
| ATGAGACG | 0.0953 |
| TGAGCCCA | -0.108 |
| ACGGATCG | 0.0969 |
| AGACCCCA | -0.227 |
| ACCGGAGG | -0.183 |
| CTTGGCGC | 0.164 |
| CGATAGAA | -0.0621 |
| CATATTGG | 0.00019 |

| Sequence | PBM E-score |
| --- | --- |
| AATAAAGC | 0.0936 |
| GAAATCAA | 0.00677 |
| CAGTTCGC | 0.14 |
| AACCAGGG | -0.0815 |
| TATATCCA | 0.124 |
| CACAGTCG | -0.108 |
| ATGCAACA | -0.0536 |
| GCTCCGTA | 0.15 |
| ATATATAC | 0.307 |
| AGCTCCCG | -0.375 |
| CATTCAAA | 0.161 |
| GTAGGAAA | 0.0684 |
| AAAGCTGG | -0.106 |
| GTGTCAAC | -0.0422 |
| AGAATTTG | 0.0544 |
| CAACCCCG | -0.348 |
| CGAACTCC | 0.0684 |
| GCCTCAGA | 0.117 |
| GCCTATAA | -0.16 |
| GCGGACAC | 0.235 |
| AACCCAGC | -0.258 |
| TACCGATA | -0.0157 |
| CAATTTTA | 0.0509 |
| AGGGTTGG | -0.0988 |
| AATTGTCT | -0.0167 |

| Sequence | PBM E-score |
| --- | --- |
| CCAATCCA | -0.109 |
| ACTCCAGC | -0.165 |
| CCCGTCCG | -0.342 |
| AAGAATGA | -0.0701 |
| AAGATGCT | -0.0653 |
| GCGACAGC | -0.0576 |
| TCTTCCCA | -0.291 |
| CGGCCCAG | 0.138 |
| CCTCGACG | -0.0771 |
| ACCACTAG | -0.0753 |
| ACCGTCAT | 0.0594 |
| CAGGGGTA | -0.278 |
| CGCTAGCG | -0.402 |
| AACCTTGT | -0.147 |
| CAAGCACG | 0.0616 |
| AACCCCAT | -0.153 |
| AACCCCAC | -0.308 |
| GCGGCGTA | 0.433 |
| GACTCCCC | -0.267 |
| AGAGGGGG | -0.395 |
| ACGCGAAG | -0.0258 |
| AAACACGG | 0.172 |
| ACATTGTG | -0.0781 |
| ACATGGCA | 0.239 |
| CAACCCGA | -0.142 |

| Sequence | PBM E-score |
| --- | --- |
| ACGTGGCC | -0.108 |
| CGTTTCGA | 0.172 |
| AAACTACC | -0.0531 |
| AGGAGTGA | -0.177 |
| ATTAATTA | 0.103 |
| AATACTGC | -0.0476 |
| CAGCCGGA | 0.0489 |
| AGCTCGAA | -0.0387 |
| CAATGGCG | 0.0793 |
| TCGAGGCA | 0.195 |
| GTGCCGCA | 0.483 |
| TCATTCCA | -0.166 |
| AAGTATAA | 0.0611 |
| TCGAATCA | 0.0606 |
| ACTCCTTA | -0.164 |
| CATTCCTA | -0.0291 |
| GCCCACAA | -0.124 |
| ACGGCACC | 0.484 |
| GATAAATC | 0.13 |
| ACGGGACT | 0.0158 |
| CAGTTACC | -0.156 |
| CGAGAGCC | -0.195 |
| ACCTAAGT | -0.0108 |
| AACTAACC | 0.117 |
| ATTGTCAA | 0.0982 |

| Sequence | PBM E-score |
| --- | --- |
| GAAATGGC | 0.104 |
| AAAAGCGC | 0.056 |
| CGTAGGGC | 0.151 |
| AATTGACA | 0.0766 |
| AGCCTAGA | 0.00734 |
| CATAGAAG | 0.074 |
| CAGCGGTA | 0.113 |
| ACGCCGCA | 0.476 |
| TCCCTCCA | -0.262 |
| AATTCCTG | -0.0858 |
| ATGTATTG | 0.126 |
| ACAAGAGC | 0.0548 |
| GTGCGTAA | 0.127 |
| CAGACAGC | -0.0487 |
| GTCTCATA | -0.085 |
| AATGCGCA | -0.0477 |
| AGTTACGG | 0.0219 |
| CTTCGCAC | 0.168 |
| TGGAACAA | 0.0888 |
| CATTTTTC | 0.0822 |
| CAGGTATC | -0.133 |
| TCACCACA | 0.0532 |
| ATTACAAA | 0.161 |
| AACAATAC | 0.137 |
| CCGCCCGA | -0.123 |

| Sequence | PBM E-score |
| --- | --- |
| ATACGAAA | 0.139 |
| AAATCCGC | 0.0925 |
| CGGCACAA | 0.405 |
| ACAATTCG | 0.159 |
| AGATGTTC | -0.0605 |
| GACCCACA | 0.0159 |
| ATTCAGCG | -0.0619 |
| AAGTCTTC | -0.0955 |
| AAATACGC | 0.247 |
| AGACCCTA | -0.211 |
| CAAGCCAC | -0.206 |
| CTGTTAAA | 0.0983 |
| GCCGTAAC | 0.33 |
| CGCTGCAC | 0.0717 |
| CGGCCTTC | 0.322 |
| CCATGTAC | -0.11 |
| ACTAATAC | 0.128 |
| GGTTTGTA | -0.177 |
| ACCAGGGG | -0.142 |
| AAATCGAG | 0.00156 |
| CGGTACGC | 0.148 |
| GGGCAGTA | -0.096 |
| GGGTCACA | -0.191 |
| CCTGTTCC | -0.121 |
| ACGGGATG | -0.155 |

| Sequence | PBM E-score |
| --- | --- |
| CGTCGCAC | 0.128 |
| TATTAAGA | 0.0417 |
| ATCTATTC | -0.00557 |
| GTATTTGA | -0.0358 |
| AGATTTCA | 0.0885 |
| ATGGCATC | 0.186 |
| GGAGCGAA | -0.0799 |
| GACGTGAC | -0.126 |
| CGGACGTC | -0.00174 |
| ACCCAGAT | -0.268 |
| ATAAGTCC | -0.141 |
| TCGAAGCA | -0.0978 |
| GAACCACA | 0.0537 |
| CGCCATAA | 0.0594 |
| GAGAACAC | -0.00017 |
| GACAGTGA | -0.169 |
| TACACGCA | -0.204 |
| TAAGCCAA | -0.0218 |
| ACACAATA | 0.0747 |
| ATCTTGTA | -0.0656 |
| AGAATGTC | 0.0594 |
| TACGGACA | 0.114 |
| CAGGTGTC | -0.163 |
| CCCAAAGA | -0.0587 |
| AGCCTCTG | -0.23 |

| Sequence | PBM E-score |
| --- | --- |
| AACTAAGA | 0.0919 |
| GATCTAGA | 0.0387 |
| ACATCCAT | 0.0466 |
| GAAAGCGA | 0.0409 |
| AACTGCTA | -0.106 |
| TAGTATGA | 0.107 |
| CGAAAGAG | -0.0479 |
| GCAAATGA | -0.116 |
| AATTTGCT | 0.14 |
| CAAATGCA | -0.06 |
| AATTTAAT | 0.245 |
| GCGAGAGC | 0.00497 |
| ACCGCTAA | 0.0619 |
| CATTATCA | 0.0245 |
| AGACAATA | 0.28 |
| AGCGAAAG | -0.138 |
| ACCCGGGG | -0.224 |
| TAGTGGGA | -0.21 |
| GATTACGC | 0.159 |
| TCAGGAAA | 0.032 |
| ATATTGGA | -0.185 |
| AAGTGATC | -0.0807 |
| CTCGGTCA | -0.148 |
| CCGAGCCA | -0.0385 |
| ATCACGCC | 0.0859 |

| Sequence | PBM E-score |
| --- | --- |
| ACACACCA | 0.0172 |
| GTAGACGA | -0.0245 |
| CCTACGCC | -0.0289 |
| AGAGCGAG | -0.102 |
| GAAAGTAC | 0.0754 |
| ACACTTGA | -0.0766 |
| CCACATAC | 0.094 |
| AGAGCCCC | -0.12 |
| GACGATAC | 0.116 |
| TCATAGAA | 0.143 |
| ATAGAAGA | -0.0683 |
| GACCAACA | 0.172 |
| GCATCATA | 0.157 |
| ACATAGGT | 0.00268 |
| ACGATCGA | 0.0709 |
| AGTGCAGC | 0.0827 |
| ATCACGGC | 0.351 |
| CGCTTTTA | 0.0826 |
| GTTCCTGA | -0.215 |
